# Test results reported in PMC4336329 (PLoS ONE, 2015).
# Out of some 310,000 compounds screened, about 2,200 (0.71%) showed an effect of 50% or more. The effect is printed as a negative number. The list shows a part of the results.
# Biological target: human ether-à-go-go-related gene (hERG) potassium channel (human, UniProt Q12809)
# Assay: primary screen, population patch clamp on CHO cells stably expressing hERG
# human ether-à-go-go-related gene (hERG) potassium channel, sequence (Q12809 whole entry, looked up): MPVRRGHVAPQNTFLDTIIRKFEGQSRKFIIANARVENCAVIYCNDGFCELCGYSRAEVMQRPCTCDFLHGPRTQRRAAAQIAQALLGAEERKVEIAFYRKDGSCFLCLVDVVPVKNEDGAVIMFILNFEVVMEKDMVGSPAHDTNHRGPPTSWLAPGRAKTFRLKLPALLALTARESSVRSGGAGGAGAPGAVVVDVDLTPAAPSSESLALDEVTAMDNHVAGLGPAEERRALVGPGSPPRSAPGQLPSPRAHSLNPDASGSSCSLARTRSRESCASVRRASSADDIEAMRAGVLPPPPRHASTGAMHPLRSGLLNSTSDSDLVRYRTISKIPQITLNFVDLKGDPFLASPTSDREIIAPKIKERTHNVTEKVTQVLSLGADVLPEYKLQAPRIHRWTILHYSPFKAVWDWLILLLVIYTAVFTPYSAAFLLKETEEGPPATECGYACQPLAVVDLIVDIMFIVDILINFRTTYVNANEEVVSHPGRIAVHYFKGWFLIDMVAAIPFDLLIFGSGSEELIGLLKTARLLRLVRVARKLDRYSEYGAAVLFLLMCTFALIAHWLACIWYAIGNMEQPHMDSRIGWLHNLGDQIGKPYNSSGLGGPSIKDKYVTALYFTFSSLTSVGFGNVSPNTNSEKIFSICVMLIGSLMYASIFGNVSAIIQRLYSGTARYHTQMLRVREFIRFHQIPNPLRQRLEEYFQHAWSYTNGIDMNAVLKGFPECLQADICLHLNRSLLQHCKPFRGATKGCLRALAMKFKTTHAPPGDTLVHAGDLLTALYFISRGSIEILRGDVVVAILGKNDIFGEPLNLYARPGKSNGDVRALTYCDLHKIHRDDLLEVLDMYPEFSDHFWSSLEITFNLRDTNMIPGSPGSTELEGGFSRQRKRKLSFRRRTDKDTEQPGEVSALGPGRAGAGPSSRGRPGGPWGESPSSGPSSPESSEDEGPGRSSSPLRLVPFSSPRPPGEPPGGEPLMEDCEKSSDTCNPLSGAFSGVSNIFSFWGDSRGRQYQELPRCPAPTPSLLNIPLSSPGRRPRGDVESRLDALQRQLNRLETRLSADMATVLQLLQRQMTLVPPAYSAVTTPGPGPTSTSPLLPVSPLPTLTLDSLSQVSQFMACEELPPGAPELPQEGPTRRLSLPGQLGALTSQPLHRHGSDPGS
row,SMILES,"hERG current change (%, negative = inhibition) at 1uM [%]"
1,O=S(=O)(Nc1cccc(Oc2ccc(Cl)cc2)n1)c1ccc(F)cc1,7.05
2,COc1ccc(C2=NOC(C(=O)NCc3ccco3)C2)cc1 (stereo not shown),-5.25
3,CCOC(=O)N1CCC(NC(=O)CC(NS(=O)(=O)c2ccc(C)cc2)c2ccco2)CC1 (stereo not shown),5.99
4,NS(=O)(=O)c1ccc(CCNC(=O)c2cnc(Cl)c(Cl)c2)cc1,10.8
5,Cc1nnc(NC(=O)CC(NC(=O)C(F)(F)F)c2ccccc2)s1 (stereo not shown),12.3
6,CC(C)OC(=O)c1cc2c(ccn2C)n1CC(=O)N(Cc1ccccc1)c1ccc(F)cc1,-1.23
7,CCSc1nc2ccccc2c(=O)n1C1CCOC(C)(C)C1 (stereo not shown),9.41
8,O=C(O)C1CCCCC1C(=O)Nc1ccc2c(c1)OCO2 (stereo not shown),14.3
9,Cc1ccc(S(=O)(=O)N2[C@@H](c3ccc(Cl)cc3)C(C(=O)O)=CC[C@H]2c2ccc3c(c2)OCO3)cc1,13.9
10,CNC(=O)C1Cc2ccccc2CN1S(=O)(=O)c1cccs1 (stereo not shown),6.54
11,O=C(NCCSCc1ccco1)c1ccc(CN2CCOCC2)cc1,16.8
12,Cc1ccc(OCC(=O)Nc2ccc(S(=O)(=O)Nc3ccccn3)cc2)cc1,29.2
13,Cc1cccc(OCc2nc(-c3ccc(Br)o3)no2)c1,1.97
14,O=C1OCCC1Sc1nc2ccccc2s1 (stereo not shown),6.05
15,COc1ccc(CN2CCSCC2)cc1O,11.7
16,O=[N+]([O-])c1ccc(N2CCN(CCO)CC2)cc1Sc1nc2ccccc2[nH]1,0.192
17,O=C(O)CNC(=O)c1ccc2c(c1)OCCO2,5.03
18,N#C/C(=C\c1c(Oc2ccccc2Cl)nc2ccccn2c1=O)C(=O)NC1CCS(=O)(=O)C1 (stereo not shown),14.6
19,Cc1ccc(C23CC4CC(CC(C(=O)NN)(C4)C2)C3)cc1,13
20,NC(=O)CN1CCN(S(=O)(=O)c2ccc(Br)cc2)CC1,14.2
21,COc1ccc(CN2CC(C(=O)NCc3ccccn3)CC2=O)cc1 (stereo not shown),1.04
22,Cc1cc(C(=O)NCc2nc(-c3ccccc3)no2)ccc1[N+](=O)[O-],16.9

row,SMILES,"hERG current change (%, negative = inhibition) at 1uM [%]"
1,CC(C)N(c1ccccc1)c1ccc(NC(=O)COC(=O)CCN2C(=O)c3cccc([N+](=O)[O-])c3C2=O)cc1,6.42
2,[O-][n+]1c2ccccc2c2n1CCN1CCOC21c1ccc(Cl)cc1 (stereo not shown),-11.2
3,COc1cc2cnc(-c3ccccc3)c(-c3ccc(C#N)cc3)c2cc1OC,16.7
4,C/C(=N\NC(=O)c1ccccc1F)c1ccc(C#N)cc1,0.19
5,O=C(CSc1ccccn1)Nc1nncs1,4.82
6,COc1cccc(C(=O)Nc2ccc(NC(=O)c3ccco3)nc2)c1,8.96
7,CCCCOc1ccc(C(=O)Oc2cc(C)[nH]c(=O)c2[N+](=O)[O-])cc1,13.4
8,O=C1c2ccccc2C(=O)N1OS(=O)(=O)c1ccccc1,11.8
9,COc1ccc2oc(C(=O)Nc3nc4ccccc4[nH]3)c(C)c2c1,9.68
10,Cc1cc(C(=O)C(C)Cl)c(C)n1Cc1ccco1 (stereo not shown),9.13
11,Cc1ccc(S(=O)(=O)/N=C(/Nc2cccc(O)c2)c2ccccc2)cc1,6.94
12,CN(C)C(CNS(=O)(=O)c1ccc(Br)cc1)c1cccnc1 (stereo not shown),-3.26
13,Cc1ccc(S(=O)(=O)N2CCCC(c3nnc4n3-c3ccccc3SC4)C2)cc1 (stereo not shown),-40.4
14,Cc1cccc(-n2c(C)cc(/C=N/NC(N)=S)c2C)c1,-8.61
15,CSCCC(=O)N1CCCC(N(C)CCc2ccccc2)C1 (stereo not shown),-27.3
16,NS(=O)(=O)c1ccc(NC(=O)COC(=O)c2ccc([N+](=O)[O-])s2)cc1,11.4
17,CCc1ccc(OC)c(S(=O)(=O)Nc2ccccc2C)c1,6.02
18,COc1ccc(C)cc1Nc1n[n+](C)c(-c2c3ccccc3cc3ccccc23)s1.[Cl-],9.85
19,CCOc1cc(C(=O)Nc2cc3c(cc2N2CCOCC2)n(C)c(=O)n3C)cc(OCC)c1OCC,9.01
20,CCOC(=O)/C(C#N)=C1/SC(CC)C(=O)N1c1ccc(C)cc1 (stereo not shown),-0.132
21,O=C(NCC1CC1)[C@@H]1C[C@H]1[C@@H](NP(=O)(c1ccccc1)c1ccccc1)c1ccccc1,4.98
22,c1ccc(SCCN2CCc3ccccc3C2)cc1,10.6

row,SMILES,"hERG current change (%, negative = inhibition) at 1uM [%]"
1,COC(=O)c1cc(NC(=S)N2CCN(c3ccccn3)CC2)cc(C(=O)OC)c1,0.17
2,Cc1ccc(NC(=O)c2ccc3c(c2)OCCO3)nc1,17.2
3,Cc1cccc(C)c1NC(=O)CSc1nc(N2CCOCC2)nc(N2CCOCC2)n1,13.8
4,CC(O)(CS(=O)(=O)Cc1ccccc1)c1ccccc1Cl (stereo not shown),17.3
5,Oc1ccccc1CN(Cc1ccco1)CC(O)COCc1ccc(Cl)cc1 (stereo not shown),13.1
6,Cc1cccc(Nc2c([N+](=O)[O-])c(=O)oc3ccccc23)c1,2.85
7,C/C(=N\Nc1ccc([N+](=O)[O-])cc1[N+](=O)[O-])c1ccc(-n2nncc2C(C)(C)C)cc1,7.47
8,O=C(NCCCN1CCOCC1)C(=O)NCc1ccccc1,-1.08
9,CNC(=O)c1cc(Nc2nnc(-c3ccc(C)c(S(N)(=O)=O)c3)c3ccccc23)ccc1OC,11.4
10,CCC(C)[C@H](NC(=O)N1CCCCC1)C(=O)OC (stereo partly shown),1.88
11,C(=C\c1ccccc1)/CSc1nnc(-c2cnccn2)n1Cc1ccco1,-25.2
12,CC(=O)NN1C(=O)c2ccccc2NC1c1ccc([N+](=O)[O-])o1 (stereo not shown),-3.31
13,COc1ccc(C(CNC(=O)c2ccco2)N2CCCCC2)cc1 (stereo not shown),10.3
14,CCC(NC(=O)Nc1cc(OC)c(OC)c(OC)c1)(C(F)(F)F)C(F)(F)F,3.77
15,O=C(CCc1nnc2ccc(NCc3ccccc3Cl)nn12)NC1CCCCC1,2.72
16,COc1cccc(OCc2ccc(Cl)cc2)c1C#N,10.2
17,COc1cccc(NC(=O)C2c3cc(OC)c(OC)cc3C(=O)N(C)C2c2cccnc2)c1 (stereo not shown),1.83
18,CCOc1ccc(CN(C(=O)/C=C/c2ccco2)C2CCS(=O)(=O)C2)cc1 (stereo not shown),4.16
19,O=C(CN1CCN(S(=O)(=O)c2ccccc2)CC1)Nc1ccc2c(c1)CCC2,8.5
20,O=C(Nc1ccccc1N1CCN(C(=O)c2ccc(Cl)cc2)CC1)c1cc2ccccc2o1,6.77
21,Cc1cccc(NC(=O)c2ccc([N+](=O)[O-])o2)c1,13.3
22,CC1CCN(C(=O)C(=O)c2cn(CC(=O)N3CCCCCC3)c3ccccc23)CC1,7.77

row,SMILES,"hERG current change (%, negative = inhibition) at 1uM [%]"
1,CSc1nc(N2CCN(C)CC2)c2ccccc2n1,-13.6
2,O=C1N=c2ccccc2=C1c1sc(=S)n(CC2CCCO2)c1O (stereo not shown),10.8
3,Cc1cccc(NC(=O)Cn2c(O)c(N=NC(=O)c3ccccc3O)c3ccccc32)c1,6.51
4,N#CCCN1CCN(S(=O)(=O)c2ccc(S(=O)(=O)N3CCCCCC3)cc2)CC1,9.01
5,COc1ccc(Cl)cc1C(=O)Nc1cccnc1Cl,6.85
6,O=C(C1CC(=O)N(c2ccccc2)C1)N1CCCCCC1 (stereo not shown),13
7,CCn1c(CNC(=O)C2CCCCC2)cc2cc(C)ccc21,18.8
8,O=CNc1ccc(OC(=O)c2cncc(Br)c2)cc1,14.1
9,O=C(NCC1CCCO1)c1cn(-c2ccccc2)nc1-c1ccc(F)cc1 (stereo not shown),9.15
10,COC(=O)c1ccc(Cn2cnc3cnccc32)cc1,15.6
11,Cc1cccc(C2c3[nH]c4ccccc4c3CCN2Cc2cccn2-c2ncccn2)c1 (stereo not shown),6.48
12,CCCc1cc(=O)[nH]c(SCC(=O)c2ccc(S(=O)(=O)N3CCCC3)cc2)n1,8.15
13,COc1cccc(NC(=O)CS(=O)(=O)c2cccc3nsnc23)c1,9.29
14,CCc1ccccc1NC(=O)C(C)n1nc([N+](=O)[O-])c(Br)c1C (stereo not shown),12
15,CCCn1c(Nc2ccccc2)nc2ccccc21,11.5
16,Cc1cc(C)c(N(C(=O)c2csnn2)C(C(=O)NC(C)(C)C)c2ccncc2)c(C)c1 (stereo not shown),1.08
17,CC(C)N1CCN(Cc2c[nH]c3ccccc23)CC1CCO (stereo not shown),11.7
18,COc1ccccc1CNC(=O)CSc1nnc2ccc(-c3cccnc3)nn12,4.82
19,CC1CCCCC1NC(=O)CCN1C(=O)C2C3C=CC(C3)C2C1=O (stereo not shown),15.4
20,CC(C)OP(=O)(OC(C)C)C(O)c1ccccc1F (stereo not shown),8.93
21,COc1ccccc1N1CCN(C(=O)Cn2cnc3c2c(=O)n(C)c(=O)n3C)CC1,9.48
22,CS(=O)(=O)N1CCN(c2ccc(NC(=O)c3cccnc3Cl)cc2)CC1,14.5
